This note sets out measurements from paper PMC7819943, “Rice protein-binding microarrays: a tool to detect cis-acting elements near promoter regions in rice”.

The list shows a part of the results.

This assay deals with T1, OsWOX13 (Oryza sativa, UniProt Q5QMM3 1-267).
T1 sequence: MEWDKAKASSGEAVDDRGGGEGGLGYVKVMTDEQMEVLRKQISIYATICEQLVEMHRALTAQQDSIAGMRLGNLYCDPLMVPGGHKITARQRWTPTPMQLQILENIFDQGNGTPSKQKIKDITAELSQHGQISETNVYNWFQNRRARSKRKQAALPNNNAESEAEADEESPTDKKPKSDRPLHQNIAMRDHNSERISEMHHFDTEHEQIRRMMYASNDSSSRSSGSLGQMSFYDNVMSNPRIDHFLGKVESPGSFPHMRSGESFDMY
Nature of the assay: protein-binding microarray (RPBM); PBS, 2% BSA, 51.3 ng/ul salmon testes DNA, 50 uM zinc acetate, 200 nM TF, 25 C, 1 h; high values mean tight binding. The conditions noted are these: protein: recombinant; tags: N-terminal polyhistidine and DsRed monomer fusion (pET32a); label: CyDye5-dUTP incorporated in the synthesized complementary strand; 3' TTTTT single-stranded linker to array surface; dsDNA, one strand shown. The gist of the method:
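The binding signal is fluorescence intensity per feature, in arbitrary units, read on an Axon 4000B scanner. Polyhistidine- and DsRed-tagged transcription factors (N-terminal fusions) from E. coli BL21-CodonPlus were purified on Ni–NTA and applied at 200 nM for 1 h at 25 °C to a double-stranded, BSA-blocked custom Agilent array in buffer with 50 µM zinc acetate.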
In the case of “CGAAATATAACAAATTTAGTATCAAACTACATACCTGTAACGGAGTCACCTAGTGCAG”, the binding signal is 6080 fluorescence intensity (a.u.).
Consider “TCTTTTCTTTTCCTTGATTAATGTGAGAATTTCTAGTCTCCGGAGTCACCTAGTGCAG”, for which the binding signal is 5180 fluorescence intensity (a.u.).
In the case of “CTTCGGTTGTCATCTAAATATGATGGATTGCCCCTGCTTCCGGAGTCACCTAGTGCAG” it was 3620 fluorescence intensity (a.u.); in that of “GATTAATTGGGAATTGAAAGCATATGCACTGCATTTGGTACGGAGTCACCTAGTGCAG”, 37200 fluorescence intensity (a.u.); in that of “CACTGATATATAATAAGCACCCAACATGTTATGGAACGATCGGAGTCACCTAGTGCAG”, 3290 fluorescence intensity (a.u.).
In the case of “AAGATACACGATTGATTCATTGTTTGCACCAACAATATGCCGGAGTCACCTAGTGCAG” it was 5310 fluorescence intensity (a.u.); in that of “TATAACTAATTATTTAATCGTTAATAAGCTGTTCCGCTAACGGAGTCACCTAGTGCAG”, 25600 fluorescence intensity (a.u.).
As to “CATTGATTGACATTGTTGAGGCAGTACTGTTACAGTTGAGCGGAGTCACCTAGTGCAG”, the binding signal is 59400 fluorescence intensity (a.u.).
For the sequence “AGCCCGATAATTAGATTGATTATAGACATGACTACATATACGGAGTCACCTAGTGCAG”, the binding signal was 18200 fluorescence intensity (a.u.).
Turning to “GTTAATTAATTTCATTAGCAACTGCGTACTCTGTCATGTTCGGAGTCACCTAGTGCAG”, the binding signal is 37900 fluorescence intensity (a.u.).
Consider “CCTGCCTGATTTAAAGCAGTTGAAACAAAGCAAAGCGCTTCGGAGTCACCTAGTGCAG”, for which the binding signal is 5610 fluorescence intensity (a.u.).
Take “TATGTGGGTGATTTGTTACAACGGCGCGTTCCATAATATTCGGAGTCACCTAGTGCAG”: the binding signal was 4360 fluorescence intensity (a.u.).
Take “AAAACTAAATTGAAATATCAATGATATTATTTTCAGAAAACGGAGTCACCTAGTGCAG”: the binding signal is 6060 fluorescence intensity (a.u.).
Turning to “GAATAATTAATAATAATCACAACAAGGTGATGTTAGAGATCGGAGTCACCTAGTGCAG”, the binding signal is 27000 fluorescence intensity (a.u.).
As for “GAGCCCACATTGATTTGAAGGTTCAAACTTTGTAACTTTTCGGAGTCACCTAGTGCAG”, the binding signal was 5060 fluorescence intensity (a.u.).
In the case of “CTCTACAGTAAATCAAACAGTAATCACACTCCAAACAAAACGGAGTCACCTAGTGCAG” it was 5420 fluorescence intensity (a.u.); in that of “ATCAATTAATTTATCGTGCAGCCCATGGTTTGCACTTTAGCGGAGTCACCTAGTGCAG”, 26800 fluorescence intensity (a.u.); in that of “ACCGATAAATAGATGAATTTCCCAACTAAAGCTGGCGACTCGGAGTCACCTAGTGCAG”, 8370 fluorescence intensity (a.u.).
The same measure for “TATATATATATATATATATAGACACACACATCAACAACAACGGAGTCACCTAGTGCAG”: 16000 fluorescence intensity (a.u.); for “TCACATTGTACAATCACCTAGAAATTTGCTCACTTCCATGCGGAGTCACCTAGTGCAG”: 3300 fluorescence intensity (a.u.).
The same measure for “ATCGATAACATAATTAAAGTTAAGAAAAGAATTAGATCTACGGAGTCACCTAGTGCAG”: 9440 fluorescence intensity (a.u.); for “CCTGATTGGAAGATGCTTGACGGAATATATGCAATAACTGCGGAGTCACCTAGTGCAG”: 42700 fluorescence intensity (a.u.); for “ACGTGATAGCAATTTAATAAATTTTAAGTAAAATCATACTCGGAGTCACCTAGTGCAG”: 32900 fluorescence intensity (a.u.).
For the sequence “TTCCTTGAATGAATAGACTAACTTATTGTTGCTAGAGTTTCGGAGTCACCTAGTGCAG”, the binding signal was 4880 fluorescence intensity (a.u.).
The same measure for “AGTAGTTAATTGCTTTTGATTGACTTGACTGAGTTTGTGTCGGAGTCACCTAGTGCAG”: 43900 fluorescence intensity (a.u.).
As to “AAAAGCAGGTTTACTTACGCCTCATGTTCTCACACTAATTCGGAGTCACCTAGTGCAG”, the binding signal was 24400 fluorescence intensity (a.u.).
Turning to “TTAAGAGAGACGATTCAATCAAGAGCGAGAGAGGAGGGAGCGGAGTCACCTAGTGCAG”, the binding signal was 4920 fluorescence intensity (a.u.).
In the case of “ATTTCAATTATATATGGTGCATGCATGGCATCCACGCCTCCGGAGTCACCTAGTGCAG” it was 9260 fluorescence intensity (a.u.); in that of “ACTGACACTGATTGTACCAGTATAACAAGCAACACATACACGGAGTCACCTAGTGCAG”, 23900 fluorescence intensity (a.u.); in that of “ACACAGACTTAATTTGTAAGTTTTGTGGCAGTCAAACAAGCGGAGTCACCTAGTGCAG”, 10300 fluorescence intensity (a.u.).
The same measure for “CGCGCCTGTCTGTCTCTGTTTGATTGATTCTTCTACGTCGCGGAGTCACCTAGTGCAG”: 19300 fluorescence intensity (a.u.); for “CTTTGACATAAGAAACAAATCTTAGTTCAGTTCTCCATCTCGGAGTCACCTAGTGCAG”: 6830 fluorescence intensity (a.u.).
In the case of “TACCCATCACCAAAATTACCATAAACACAACATACTTAGGCGGAGTCACCTAGTGCAG” it was 4380 fluorescence intensity (a.u.); in that of “TGAAATGGTTAAATGATTTGGGTTGAAATATTATGAAAATCGGAGTCACCTAGTGCAG”, 3220 fluorescence intensity (a.u.).
On to “TGTTAAACTGAATATATAAATTTTATCTTTGACAAGCACTCGGAGTCACCTAGTGCAG”, for which the binding signal was 27800 fluorescence intensity (a.u.).
The same measure for “GTTTGATTTCGATTGAAGCCTATTCATTGGTAATACGTAACGGAGTCACCTAGTGCAG”: 13300 fluorescence intensity (a.u.); for “AAACTTCATTTAGTAGATTGATTTTCTTAACCGAATATAGCGGAGTCACCTAGTGCAG”: 9560 fluorescence intensity (a.u.).
Turning to “AATTAAACTGCAAATTAAGCTTATTTCATGCTATGTTTAACGGAGTCACCTAGTGCAG”, the binding signal was 16400 fluorescence intensity (a.u.).
The same measure for “TACTAATGATTTTATGTAGAACATCATCACATATCTTATACGGAGTCACCTAGTGCAG”: 15800 fluorescence intensity (a.u.).
As for “GAGGGTTTTAATTACTCACTGACATGTAGGGTCACGGGGTCGGAGTCACCTAGTGCAG”, the binding signal was 6310 fluorescence intensity (a.u.).
The same measure for “TAAAATTGGAGTTTGTAAAGCTTGTTTCTTGTACGGGAATCGGAGTCACCTAGTGCAG”: 9110 fluorescence intensity (a.u.); for “ATTAATTACTCACCTAAACCATGCACTACACTTGAACAGACGGAGTCACCTAGTGCAG”: 17400 fluorescence intensity (a.u.).
